# Measurements as given in the supplement of paper PMC8728848.
# The list shows a part of the results.
# Key:
# Test in all cases: glycan array binding signal (z-score within array); higher = stronger binding
# Details in all cases: glycan notation: IUPAC condensed, linker removed
# [1] = target: Neu5Ac(a2-3)Gal(b1-4)GlcNAc(b1-2)[Neu5Ac(a2-3)Gal(b1-4)GlcNAc(b1-6)]Man(a1-6)[Neu5Ac(a2-3)Gal(b1-4)GlcNAc(b1-2)Man(a1-3)][GlcNAc(b1-4)]Man(b1-4)GlcNAc(b1-4)GlcNAc
# Outline: (§1)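 Glycan array binding is given as a within-array Z-score, which can be read as non-binding when negative. The arrays, 3228 of them, came from the Consortium for Functional Glycomics database and were retained only where the protein sequence was available. Z-scores were averaged across arrays of the same protein sequence at different concentrations or buffers and across linkers.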
# [2] = target: Neu5Ac(a2-3)Gal(b1-4)GlcNAc(b1-3)Gal
# Outline: as §1
# [3] = target: Neu5Ac(a2-3)Gal(b1-4)GlcNAc(b1-3)Gal(b1-3)GlcNAc
# Outline: as §1
# [4] = target: Neu5Ac(a2-3)Gal(b1-4)GlcNAc(b1-3)Gal(b1-4)GlcNAc
# Outline: as §1
# [5] = target: Neu5Ac(a2-3)Gal(b1-4)GlcNAc(b1-3)Gal(b1-4)GlcNAc(b1-2)Man(a1-3)[Neu5Ac(a2-3)Gal(b1-4)GlcNAc(b1-3)Gal(b1-4)GlcNAc(b1-2)Man(a1-6)]Man(b1-4)GlcNAc(b1-4)GlcNAc
# Outline: as §1
# [6] = target: Neu5Ac(a2-3)Gal(b1-4)GlcNAc(b1-3)Gal(b1-4)GlcNAc(b1-3)Gal(b1-4)GlcNAc
# Outline: as §1
# [7] = target: Neu5Ac(a2-3)Gal(b1-4)GlcNAc(b1-3)Gal(b1-4)GlcNAc(b1-3)Gal(b1-4)GlcNAc(b1-2)Man(a1-3)[Neu5Ac(a2-3)Gal(b1-4)GlcNAc(b1-3)Gal(b1-4)GlcNAc(b1-3)Gal(b1-4)GlcNAc(b1-2)Man(a1-6)]GalNAc
# Outline: as §1
# [8] = target: Neu5Ac(a2-3)Gal(b1-4)GlcNAc(b1-3)Gal(b1-4)GlcNAc(b1-3)GalNAc
# Outline: as §1
# [9] = target: Neu5Ac(a2-3)Gal(b1-4)GlcNAc(b1-3)Gal(b1-4)GlcNAc(b1-3)[Neu5Ac(a2-3)Gal(b1-4)GlcNAc(b1-3)Gal(b1-4)GlcNAc(b1-6)]GalNAc
# Outline: as §1
# [10] = target: Neu5Ac(a2-3)Gal(b1-4)GlcNAc(b1-3)Gal(b1-4)GlcNAc(b1-6)[Gal(b1-3)]GalNAc
# Outline: as §1
# [11] = target: Neu5Ac(a2-3)Gal(b1-4)GlcNAc(b1-3)Gal(b1-4)[Fuc(a1-3)]GlcNAc
# Outline: as §1
# [12] = target: Neu5Ac(a2-3)Gal(b1-4)GlcNAc(b1-3)GalNAc
# Outline: as §1
# [13] = target: Neu5Ac(a2-3)Gal(b1-4)GlcNAc(b1-3)[Neu5Ac(a2-3)Gal(b1-4)GlcNAc(b1-6)]GalNAc
# Outline: as §1
# [14] = target: Neu5Ac(a2-3)Gal(b1-4)GlcNAc(b1-6)GalNAc
# Outline: as §1
# [15] = target: Neu5Ac(a2-3)Gal(b1-4)GlcNAc(b1-6)[Gal(b1-3)]GalNAc
# Outline: as §1
# [16] = target: Neu5Ac(a2-3)Gal(b1-4)GlcNAc(b1-6)[Neu5Ac(a2-3)Gal(b1-3)]GalNAc
# Outline: as §1
# [17] = target: Neu5Ac(a2-3)Gal(b1-4)GlcNAc6S
# Outline: as §1
# [18] = target: Neu5Ac(a2-3)Gal(b1-4)[Fuc(a1-3)]GlcNAc
# Outline: as §1
# [19] = target: Neu5Ac(a2-3)Gal(b1-4)[Fuc(a1-3)]GlcNAc(b1-2)Man
# Outline: as §1
# [20] = target: Neu5Ac(a2-3)Gal(b1-4)[Fuc(a1-3)]GlcNAc(b1-3)Gal
# Outline: as §1
# [21] = target: Neu5Ac(a2-3)Gal(b1-4)[Fuc(a1-3)]GlcNAc(b1-3)Gal(b1-4)GlcNAc
# Outline: as §1
# [22] = target: Neu5Ac(a2-3)Gal(b1-4)[Fuc(a1-3)]GlcNAc(b1-3)Gal(b1-4)[Fuc(a1-3)]GlcNAc(b1-3)Gal(b1-4)[Fuc(a1-3)]GlcNAc
# Outline: as §1
# [23] = target: Neu5Ac(a2-3)Gal(b1-4)[Fuc(a1-3)]GlcNAc(b1-3)GalNAc
# Outline: as §1
# [24] = target: Neu5Ac(a2-3)Gal(b1-4)[Fuc(a1-3)]GlcNAc(b1-6)[Gal(b1-3)]GalNAc
# Outline: as §1
# [25] = target: Neu5Ac(a2-3)Gal(b1-4)[Fuc(a1-3)]GlcNAc(b1-6)[Neu5Ac(a2-3)Gal(b1-3)]GalNAc
# Outline: as §1
# [26] = target: Neu5Ac(a2-3)Gal(b1-4)[Fuc(a1-3)]GlcNAc6S
# Outline: as §1
# [27] = target: Neu5Ac(a2-3)Gal6S(b1-4)GlcNAc
# Outline: as §1
# [28] = target: Neu5Ac(a2-3)Gal6S(b1-4)[Fuc(a1-3)]GlcNAc
# Outline: as §1
# Neu5Ac(a2-3)GalNAc = target: Neu5Ac(a2-3)GalNAc
# Outline: as §1
# [29] = target: Neu5Ac(a2-3)GalNAc(b1-4)GlcNAc
# Outline: as §1
# [30] = target: Neu5Ac(a2-3)[GalNAc(b1-4)]Gal(b1-4)Glc
# Outline: as §1
# [31] = target: Neu5Ac(a2-3)[GalNAc(b1-4)]Gal(b1-4)GlcNAc
# Outline: as §1
# [32] = target: Neu5Ac(a2-3)[GalNAc(b1-4)]Gal(b1-4)GlcNAc(b1-3)GalNAc
# Outline: as §1
# [33] = target: Neu5Ac(a2-3)[Neu5Ac(a2-6)]GalNAc
# Outline: as §1
# Neu5Ac(a2-6)Gal = target: Neu5Ac(a2-6)Gal
# Outline: as §1
# [34] = target: Neu5Ac(a2-6)Gal(b1-3)GlcNAc(b1-3)[Gal(b1-4)GlcNAc(b1-6)]Gal(b1-4)Glc
# Outline: as §1
# Neu5Ac(a2-6)Gal(b1-4)Glc = target: Neu5Ac(a2-6)Gal(b1-4)Glc
# Outline: as §1
# [35] = target: Neu5Ac(a2-6)Gal(b1-4)GlcNAc
# Outline: as §1
binder,measurement,setting,value
"UEA-I (Ulex europaeus), P22972 (protein) SDDLSFKFKNFSQNGKDLSFQGDASVIETGVLQLNKVGNNLPDETGGIARYIAPIHIWNCNTGEVASFITSFSFFMETSANPKAATDGLTFFLAPPDSPLRRAGGYFGLFEDTKDNDSSYQTVAVEFDTIGSPVNFDDPGFPHIGIDVNRVKSINAERWNKRYGLNNVANVEIIYEASSKTLTASLTYPSDQTSISVTSIVDLKEILPEWVSVGFSGGTYIGRQATHEVLNWYFTSNLINTNS",glycan array binding signal (z-score),[1],-0.26
same,glycan array binding signal (z-score),[2],-0.298
same,glycan array binding signal (z-score),[3],-0.118
same,glycan array binding signal (z-score),[4],-0.218
same,glycan array binding signal (z-score),[5],0.605
same,glycan array binding signal (z-score),[6],0.026
same,glycan array binding signal (z-score),[7],0.601
same,glycan array binding signal (z-score),[8],-0.156
same,glycan array binding signal (z-score),[9],-0.105
same,glycan array binding signal (z-score),[10],-0.1
same,glycan array binding signal (z-score),[11],-0.093
same,glycan array binding signal (z-score),[12],-0.22
same,glycan array binding signal (z-score),[13],-0.163
same,glycan array binding signal (z-score),[14],-0.243
same,glycan array binding signal (z-score),[15],0.071
same,glycan array binding signal (z-score),[16],-0.233
same,glycan array binding signal (z-score),[17],-0.222
same,glycan array binding signal (z-score),[18],-0.199
same,glycan array binding signal (z-score),[19],-0.129
same,glycan array binding signal (z-score),[20],-0.243
same,glycan array binding signal (z-score),[21],-0.115
same,glycan array binding signal (z-score),[22],-0.167
same,glycan array binding signal (z-score),[23],0.004
same,glycan array binding signal (z-score),[24],0.049
same,glycan array binding signal (z-score),[25],-0.078
same,glycan array binding signal (z-score),[26],-0.163
same,glycan array binding signal (z-score),[27],-0.2
same,glycan array binding signal (z-score),[28],-0.136
same,glycan array binding signal (z-score),Neu5Ac(a2-3)GalNAc,-0.253
same,glycan array binding signal (z-score),[29],-0.247
same,glycan array binding signal (z-score),[30],-0.216
same,glycan array binding signal (z-score),[31],-0.194
same,glycan array binding signal (z-score),[32],0.026
same,glycan array binding signal (z-score),[33],-0.245
same,glycan array binding signal (z-score),Neu5Ac(a2-6)Gal,-0.193
same,glycan array binding signal (z-score),[34],-0.117
same,glycan array binding signal (z-score),Neu5Ac(a2-6)Gal(b1-4)Glc,-0.161
same,glycan array binding signal (z-score),[35],-0.206
